Test in all cases: cell count relative to DMSO control; melanoma cells; higher = more viable cells
Holding throughout (settings): library dose: standard library concentration; 72 h

The subject of assay [1] is SkMel30.
Assay [2] concerns SkMel5.
The subject of assay [3] is UACC257.
The test system of assay [4] is UACC62.
Assay [5] relates to WM115.
Assay [6] deals with WM1716.
For assay [7], the system named is WM1745.
Assay [8] deals with WM3526.
The test system of assay [9] is WM3619.
The test system of assay [10] is WM451Lu.

This is one part of the list. Repeats are few or missing, and single values can be far off.
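Note: cells treated in 1,536-well plates, then fixed and DAPI-stained, with nuclei counted from automated high-throughput microscope images.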

Turning to `COc1ccc(COc2ccc(Cc3cnc(N)nc3N)cc2OC)cc1` + CCCCCCCCCCCC1=C(O)C(=O)C=C(O)C1=O [Embelin] (first compound 5 µM, partner dose 6 µM), the cell count in assay [1] turned out to be 92.8%; in assay [2], 65.6%; in assay [3] it was 93.6%; in assay [4] it was 87.9%; in [5] it was 86.8%; in assay [6] it was 79.9%. Besides, the cell count turned out to be 88.1% in assay [7], 87.2% in assay [8], 123% in assay [9] and 91.9% in [10].
Consider `N#Cc1c(O)c2c(-c3ccc(-c4ccccc4O)cc3)csc2[nH]c1=O` + CC(C)CCN1c2nc(Nc3cc(F)c(O)c(F)c3)ncc2N(C)C(=O)C1C [BID1870] (first compound 10 µM, partner dose 1 µM), for which the cell count in assay [1] was determined as 91%; in assay [2], 105%; in [3] it was 104%; in assay [4], 71.2%; in [5], 106%; in [6], 89.5%. Also, the cell count in [7] turned out to be 86.3%; in assay [8], 78.6%; in assay [9], 64.4%; in assay [10] it was 86.5%.
For the compound `O=C1NC(=O)/C(=C/c2ccc(-c3ccc(F)cc3O)o2)S1` + Oc1nc(-c2ccc(C(F)(F)F)cc2)nc2c1CSCC2 [XAV939] (first compound 5 µM, partner dose 10 µM), the cell count in assay [1] was 119%; in assay [2], 83.1%; in assay [3] it was 77.3%; in assay [4], 126%; in [5] it was 105%; in assay [6] it was 75.1%. Further, the cell count in assay [7] was 65.8%; in [8], 92.1%; in assay [9] it was 72.1%; in assay [10] it was 93%.
`Oc1cc(-c2nc(-c3ccccc3)[nH]c2-c2ccncc2)ccc1Cl` + O=c1cc(-c2cccc3c2Sc2ccccc2S3)oc(N2CCOCC2)c1 [KU55933] (first compound 1 µM, partner dose 5 µM): the cell count in assay [1] amounted to 83.9%; in assay [2], 66.1%; in [3], 102%; in assay [4] it was 61.9%; in assay [5] it was 42.3%; in assay [6], 71.1%. Moreover, the cell count came to 58% in assay [7], 60.6% in assay [8], 67.8% in [9] and 58.9% in [10].
Take `COc1ccc(COc2ccc(Cc3cnc(N)nc3N)cc2OC)cc1` + c1cc(-c2cnn3cc(-c4ccc(OCCN5CCCCC5)cc4)cnc23)ccn1 [Dorsomorphin] (first compound 5 µM, partner dose 2 µM): the cell count is 76.9% in assay [1]; 65.6% in assay [2]; 72.3% in assay [3]; 73.5% in assay [4]; 92.1% in assay [5]; 84.5% in assay [6]. Besides, the cell count is 33.2% in assay [7], 71.9% in assay [8], 80.3% in assay [9] and 70.8% in [10].
For `N#Cc1c(O)c2c(-c3ccc(-c4ccccc4O)cc3)csc2[nH]c1=O` + Oc1nc(-c2ccc(C(F)(F)F)cc2)nc2c1CSCC2 [XAV939] (first compound 10 µM, partner dose 10 µM), the cell count in assay [1] is 95.5%; in [2] it was 89%; in assay [3], 85.6%; in [4], 89.6%; in assay [5], 112%; in assay [6], 102%. The cell count came to 88.9% in [7], 101% in [8], 71.1% in [9] and 93.9% in assay [10].
Take `COc1cc(N2CCC(N3CCN(C)CC3)CC2)ccc1Nc1ncc(Cl)c(Nc2ccccc2S(=O)(=O)C(C)C)n1` + CCCCCCCCCCCC1=C(O)C(=O)C=C(O)C1=O [Embelin] (first compound 0.4 µM, partner dose 6 µM): the cell count in assay [1] is 112%; in [2] it was 67%; in [3], 88%; in assay [4], 91%; in assay [5], 70.2%; in assay [6], 85.2%. Also, the cell count in assay [7] was determined as 55.3%; in assay [8] it was 79.5%; in assay [9] it was 79.6%; in [10] it was 4.66%.
Turning to `O=C(O)C(=O)Nc1sc2c(c1C(=O)O)CCNC2` + Oc1nc(-c2ccc(C(F)(F)F)cc2)nc2c1CSCC2 [XAV939] (first compound 8.33333 µM, partner dose 10 µM), the cell count is 102% in [1]; 71.9% in [2]; 89.9% in assay [3]; 87.2% in assay [4]; 71.1% in assay [5]; 78.5% in [6]. In addition, the cell count in assay [7] was determined as 60.5%; in assay [8], 88.8%; in [9], 78%; in assay [10], 97.1%.
`O=C1NC(=O)/C(=C/c2ccc(-c3ccc(F)cc3O)o2)S1` + COc1cc(N2CCC(N3CCN(C)CC3)CC2)ccc1Nc1ncc(Cl)c(Nc2ccccc2S(=O)(=O)C(C)C)n1 [NVP-TAE684] (first compound 5 µM, partner dose 0.4 µM): the cell count stood at 74.5% in [1]; 40.7% in [2]; 89.3% in assay [3]; 91.1% in [4]; 81.2% in assay [5]; 90.1% in assay [6]. For the same compound, the cell count stood at 58.8% in [7], 66% in assay [8], 62.5% in assay [9] and 80.6% in assay [10].
Turning to `c1cc(-c2cnn3cc(-c4ccc(OCCN5CCCCC5)cc4)cnc23)ccn1` [Dorsomorphin] + Cn1cc(/C=C2\C(=O)Nc3cccnc32)c2ccccc21 [GW441756] (first compound 2 µM, partner dose 2 µM), the cell count in assay [1] is 51.4%; in assay [2], 42.3%; in assay [3], 75.4%; in [4], 53.9%; in assay [5] it was 82.9%; in [6], 82.9%. Besides, the cell count in assay [7] stood at 40.9%; in assay [8], 76.8%; in assay [9] it was 66.7%; in assay [10], 69.7%.
As to `COc1cc2ncnc(Nc3ccc(Oc4ccccc4)cc3)c2cc1OC` + COc1cc(N2CCC(N3CCN(C)CC3)CC2)ccc1Nc1ncc(Cl)c(Nc2ccccc2S(=O)(=O)C(C)C)n1 [NVP-TAE684] (first compound 10 µM, partner dose 0.4 µM), the cell count in assay [1] came to 99.4%; in assay [2], 45.6%; in assay [3], 74.8%; in assay [4], 58.3%; in [5], 73.3%; in assay [6], 61.9%. Further, the cell count in assay [7] worked out at 32.8%; in [8], 42.7%; in assay [9], 60.6%; in assay [10] it was 59.7%.
For the compound `Oc1cc(-c2nc(-c3ccccc3)[nH]c2-c2ccncc2)ccc1Cl` + COc1cc(N2CCC(N3CCN(C)CC3)CC2)ccc1Nc1ncc(Cl)c(Nc2ccccc2S(=O)(=O)C(C)C)n1 [NVP-TAE684] (first compound 1 µM, partner dose 0.4 µM), the cell count in [1] is 102%; in assay [2], 58.9%; in assay [3] it was 93.6%; in assay [4], 41.2%; in assay [5], 41.8%; in assay [6], 65.4%. Further, the cell count was found to be 23.3% in assay [7], 39.9% in [8], 63.4% in assay [9] and 52.3% in assay [10].

For the origin of these results see the supplement of paper PMC4604168 (melanoma cell lines).
